Assay results as given in PubChem BioAssay (NCI).
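Values below derive from 48-hour exposures of cells grown in 96-well plates, with endpoints linearly interpolated between the two concentrations bracketing the appropriate inhibition level. GI50: concentration for 50% inhibition of growth. The concentration for full growth arrest is given as TGI.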

What follows are compounds tested on NCI-H322M lung (assay: NCI tumour cell line growth inhibition, 48 h).

First: NCCCCC(NC(=O)C(N)CCCN=C(N)N)C(=O)NC(CCCCN)C(=O)NC(CCCN=C(N)N)C(=O)NC(CCCN=C(N)N)C(=O)NC(CCC(N)=O)C(=O)NC(CCCN=C(N)N)C(=O)NC(CCCN=C(N)N)C(=O)NC(CCCN=C(N)N)C(=O)NCC(=O)NCC(=O)O (centres undefined)
Second: CN1C(=O)CCC(N2C(=O)c3cccc(NCCOCCOCCNC(=O)c4cc5c(o4)C(=O)c4ccccc4C5=O)c3C2=O)C1=O (centres undefined)
The GI50 of the first is higher: > 50 µM for the first, 1.45 µM for the second.

First: Cc1c(Cn2c(C)nc3c(C(=O)O)cc(N4CCOCC4)cc32)cccc1C(F)(F)F
Second: NC(=S)N/N=C/c1ccc(OC(=O)COc2cc(Cl)c(Cl)cc2Cl)cn1
The GI50 of the first is 14-fold higher: 66.3 µM for the first, 4.62 µM for the second.

Going from `NCCCCC(NC(=O)C(N)CCCN=C(N)N)C(=O)NC(CCCCN)C(=O)NC(CCCN=C(N)N)C(=O)NC(CCCN=C(N)N)C(=O)NC(CCC(N)=O)C(=O)NC(CCCN=C(N)N)C(=O)NC(CCCN=C(N)N)C(=O)NC(CCCN=C(N)N)C(=O)NCC(=O)NCC(=O)O` (centres undefined) to `CN1C(=O)CCC(N2C(=O)c3cccc(NCCOCCOCCNC(=O)c4cc5c(o4)C(=O)c4ccccc4C5=O)c3C2=O)C1=O` (centres undefined), the TGI falls from > 50 µM to 2.78 µM.

`C=C1C(C(=O)OC)[C@H]1C(=O)OC` (some centres undefined) and `O=C(CC1(O)C(=O)Nc2c(Cl)cc(Cl)cc21)c1ccccc1` (centres undefined) cannot be ordered by TGI: > 100 µM for the first, > 100 µM for the second.

`Cc1c(Cn2c(C)nc3c(C(=O)O)cc(N4CCOCC4)cc32)cccc1C(F)(F)F` and `O=C1c2ccccc2N(O)C1(c1ccccc1)C1CCCC=C1N1CCOCC1` (centres undefined) cannot be ordered by TGI: > 100 µM for the first, > 100 µM for the second.

Compared with `COc1ccc2c(c1)c1c3c(ccc4ncn2c43)N(CCO)CCN=1`, `CN(C)CCNc1ccc2ncn3c4ccc(O)cc4c(=O)c1c23` is 14-fold higher in TGI: 0.752 µM for the first, 10.4 µM for the second.

`NC(=S)N/N=C/c1ccc(OC(=O)COc2cc(Cl)c(Cl)cc2Cl)cn1` and `NC(=O)CC1OC(=O)Cc2cc3c(c(O)c21)C(=O)c1c(O)cccc1C3=O` (centres undefined) cannot be ordered by TGI: > 100 µM for the first, > 100 µM for the second.

`CC(C)(C)C1=CC(=N/N=c2\scc(-c3ccccc3)n2-c2ccccc2)C=C(C(C)(C)C)C1=O` and `C(=N\c1nc2cc3sc(/N=C/c4ccccc4)nc3cc2s1)/c1ccccc1` cannot be ordered by TGI: > 100 µM for the first, > 100 µM for the second.

`Cc1nc2c(c(N3CCN(C)CC3)n1)Cc1ccccc1-2` and `CC1=CCC2CC1C(C(=O)c1c[nH]c3ccccc13)=NC2(C)C` (centres undefined) cannot be ordered by TGI: > 100 µM for the first, > 100 µM for the second.

`COc1ccc(N2C(=O)C3CC(c4ccc(Br)cc4)c4c([nH]c5ccccc45)C3C2=O)cc1` (centres undefined) gave a TGI of 75.3 µM.
